Measurements: paper PMC6662813 (Scientific Reports, 2019)

Target: T1, His-cRaf-(R), regulatory domain fragment of cRaf (aa 51-187) (mouse, UniProt Q99N57-2 part only)
T1 construct: cRaf (Raf1), mouse cDNA NM_001356333.2, aa 51-187 (regulatory domain with the RBD and the cysteine rich domain), in pET-32a; also called His-c-Raf fragment; cRaf RBD; source: E. coli Rosetta DE3 (pET-32a), captured on Ni-NTA agarose beads (pull-downs); purified (Ni-NTA) and concentrated (NMR)
Assay: NMR titration; 1H-15N HSQC at 25 C; 19 uM 15N-labeled Crabp1 with atRA (40 uM or 21 uM) and increasing unlabeled His-c-Raf-(R); 30 mM d11-Tris-d3-acetate pH 6.2, 75 mM Na2SO4, 10 uM ZnCl2, 1 mM DTT; KD roughly estimated from the shifts of three resonances
Conditions: both partners purified

B1: His-Crabp1 (cellular retinoic acid binding protein 1) (natural protein)
chain: not shown
notes: uniformly 15N-labelled for the NMR titrations; No removal of the His tag is described; also called purified His-Crabp1; 15N-labeled Crabp1; source: E. coli Rosetta DE3 (pET-15b), purified (Ni-NTA); not shown: His6, N-terminal, kept
Work on B1 yielded a Kd of roughly 40 µM.
